Test results as given in article PMC5147500 (Cell, 2016).

B1: VPS26 from pmr101A-VPS26, with an extra MG at the N terminus and … at the C terminus (natural protein)
chain: not shown
modifications: labeled with SeMet (selenomethionine)
B2: VPS26A […], the VPS26 part of the fusions VPS26([…])-DMT1(549–560) and VPS26([…])-DMT1(549–560)(L557M) (domain or fragment)
chain: not shown
modifications: labeled with SeMet (selenomethionine)
B3: VPS26A […], the VPS26 part of the fusion VPS26([…])-DMT1([…]) (domain or fragment)
chain: not shown

target: N-terminal part of human VPS35 (VPS35N), […] (human); test: crystal structure

binding result	Binder
binds	B1
binds	B2
binds	B3
